Measured values reported in PubChem BioAssay AID488969 (Vanderbilt High Throughput Screening Facility, 2010).
In all, about 110,000 compounds were measured (“z-score”: median about -0.1, highest 2% from about 2 on). The list shows a part of the results. Active and inactive are the calls of the source.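 Rule for the calls: active = z-score in the third read window above 3 or below -3; inactive = the rest.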

Target: Metabotropic glutamate receptor 8 (Rattus norvegicus) (UniProt P70579)
Experiment: mGluR8 Gi/Go-coupled signaling modulation – cell-based, rat, thallium flux, HTS, primary screen (AID 488969)
Conditions: HEK293 rat mGluR8, GIRK (G protein-gated inwardly rectifying potassium channel) thallium flux, FluoZin2; at 10 µM; stronger effect = higher value; submaximal glutamate (EC20) added with thallium

UniProt P70579, sequence (P70579 whole entry, looked up): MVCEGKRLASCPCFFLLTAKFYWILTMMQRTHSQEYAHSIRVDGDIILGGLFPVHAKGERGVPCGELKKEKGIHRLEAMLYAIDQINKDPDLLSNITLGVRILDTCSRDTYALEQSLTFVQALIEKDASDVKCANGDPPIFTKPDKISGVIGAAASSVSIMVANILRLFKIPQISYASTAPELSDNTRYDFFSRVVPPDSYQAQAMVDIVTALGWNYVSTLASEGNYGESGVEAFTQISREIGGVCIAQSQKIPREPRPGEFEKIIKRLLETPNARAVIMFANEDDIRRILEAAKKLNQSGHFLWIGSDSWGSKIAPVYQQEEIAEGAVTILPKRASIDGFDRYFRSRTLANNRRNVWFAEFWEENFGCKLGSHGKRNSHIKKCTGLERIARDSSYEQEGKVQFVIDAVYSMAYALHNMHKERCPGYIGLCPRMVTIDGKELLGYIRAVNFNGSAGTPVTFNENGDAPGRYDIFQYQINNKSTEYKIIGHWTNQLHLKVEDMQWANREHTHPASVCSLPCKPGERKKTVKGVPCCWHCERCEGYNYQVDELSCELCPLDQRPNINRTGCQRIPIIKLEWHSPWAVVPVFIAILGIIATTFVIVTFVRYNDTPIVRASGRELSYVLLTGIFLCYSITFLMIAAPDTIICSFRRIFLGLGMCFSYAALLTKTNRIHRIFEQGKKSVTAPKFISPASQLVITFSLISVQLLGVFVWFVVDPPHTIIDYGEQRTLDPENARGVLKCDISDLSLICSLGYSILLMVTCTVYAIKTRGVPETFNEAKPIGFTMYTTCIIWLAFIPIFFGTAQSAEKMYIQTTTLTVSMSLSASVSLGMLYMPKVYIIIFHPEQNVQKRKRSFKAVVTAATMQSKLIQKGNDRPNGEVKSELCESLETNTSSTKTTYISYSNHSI

Row | Compound | z-score
1 | CN(C)c1ccc(/C=C(/C(=O)c2ccc(Cl)cc2Cl)n2cncn2)cc1 | -0.266
2 | Cc1ccc(Nc2nnc(SCC(=O)Nc3ccc(S(=O)(=O)N4CCOCC4)cc3)s2)cc1 | 0.283
3 | COC(=O)C1=C(C)N(C)C(C)=C(C(=O)OC)C1c1ccc(Cl)cc1 | -0.451
4 | COc1cc2c(cc1OC)C(c1ccc(-c3ccc(Cl)cc3Cl)o1)=NCC2 | -0.106
5 | Clc1ccc(OCCn2ccnc2)c(Br)c1 | 0.203
6 | Cc1ccc(C)c(NC(=O)CSc2nc3c(oc4ccccc43)c(=O)n2-c2ccccc2)c1 | -0.0703
7 | Cc1ccc(N2C(=O)c3ccccc3C2(O)c2ncc[nH]2)cc1 (stereo not drawn) | -0.3
8 | O=S(=O)(c1cccc2cccnc12)N1CCN(Cc2ccc3c(c2)OCO3)CC1 | 0.0765
9 | O=C(NCCc1csc(-c2cccnc2)n1)c1cccc2ccccc12 | 0.472
10 | O=C1CCC(=O)N1CCc1c[nH]c2ccccc12 | 0.917
11 | c1ccc(C(Cc2nc(-c3ccccn3)no2)c2ccccc2)cc1 | 0.0811
12 | Cc1ccc(-c2cc3nc(-c4ccc(Br)cc4)cc(N)n3n2)cc1 | -0.0381
13 | COC(=O)C1=C(NC(=O)C(C)(C)C)CCS1 | -0.000537
14 | COc1cccc(-n2c(SCC(=O)Nc3cc(C)on3)nc3c([nH]c4ccccc43)c2=O)c1 | -0.154
15 | COc1ccc2oc(=O)c(C(=O)Oc3ccc(NC(C)=O)cc3)cc2c1 | -0.117
16 | Cn1nc(C(F)(F)F)c2cc(NC(=O)OCc3ccc(F)cc3)sc21 | active: 9.32
17 | Cc1ccccc1OCCn1c(CCNC(=O)C(C)C)nc2ccccc21 | -0.179
18 | Cc1cccc(NC(=S)NCCC(c2ccccc2)c2ccccc2)c1 | -0.348
19 | Cc1ccc(S(=O)(=O)C2(C(=O)N3CCCCCC3)CC2)cc1 | -0.0403
20 | O=C(CSCc1cnn(-c2ccccc2)c1-n1cccc1)NCc1cccs1 | -0.163
21 | CC(=O)N(c1ccccc1C)C1CCCC1 | -0.199
22 | O=C(N/N=C/c1cccc(OCC(=O)N2CCCC2)c1)C(=O)Nc1ccccc1F | -0.51

Row | Compound | z-score
23 | COc1ccc(S(=O)(=O)Cc2ccc(C(=O)N3CCN(C(=O)c4ccco4)CC3)o2)cc1 | 0.0311
24 | COc1ccc(Br)cc1C(=O)Nc1ccc(N2CCN(S(C)(=O)=O)CC2)cc1 | 0.261
25 | COc1ccccc1C/C(N)=N/OC(=O)COc1cccc(C)c1 | -0.225
26 | CC1CCN(c2ccc(N3C(=O)C4CCCCC4C3=O)cc2[N+](=O)[O-])CC1 (stereo not drawn) | 0.00622
27 | Nc1nc(CC(=O)CSc2ccc(Cl)cc2)nc(Nc2ccc(F)cc2)n1 | -0.282
28 | C/C(=N\OC(=O)c1cccc(Cl)c1)c1sc(C)nc1C | 0.214
29 | COCCNC(=O)CSC1=N/C(=C/c2ccc(Cl)c(Cl)c2)C(=O)N1c1ccccc1F | 0.268
30 | C=CCNC(=O)C1CCN(S(=O)(=O)c2ccccc2)CC1 | 0.5
31 | Cc1cc(C)n(-c2cc(N3CCN(S(=O)(=O)c4ccc(Br)cc4)CC3)ccc2[N+](=O)[O-])n1 | 0.016
32 | CC1(C)CC(=O)C(C(C#Cc2ccccc2)C2=C(O)CC(C)(C)CC2=O)=C(O)C1 | -0.00387
33 | COc1ccc(N(C(=O)C2CCCCC2)C2C=CS(=O)(=O)C2)c(OC)c1 (stereo not drawn) | 0.112
34 | Cc1cc([N+](=O)[O-])ccc1-c1ccc(/C=N/NC(=O)Cc2ccccc2)o1 | -0.12
35 | COc1ccc(NC(=S)SC)cc1OC | active: 3.35
36 | CCOC(=O)CSc1nc2c(c(-c3ccc(C)o3)c1C#N)CCCC2 | -0.199
37 | O=C(CSc1nnc(-c2ccccn2)n1Cc1ccco1)Nc1ccc2c(c1)OCO2 | -0.265
38 | Cn1c(/C(C#N)=C/c2ccc(-c3ccc(S(N)(=O)=O)cc3)o2)nc2ccccc21 | -0.341
39 | Cc1ccc(/C=C/C(=O)Nc2cc(S(=O)(=O)N3CCCCCC3)ccc2OCC(F)(F)F)o1 | 0.00396
40 | COC(=O)c1ccc(Cn2nnc3c(sc4nc(N5CCOCC5)c5c(c43)CCCC5)c2=O)o1 | -0.0753
41 | CC(/C=N/NC(=O)c1cc(C(C)C)[nH]n1)=C\c1ccccc1 | -0.581
42 | CCCCCc1nc2sc3c(c2c(=O)n1NC(=O)c1ccc([N+](=O)[O-])cc1)CC(C)(C)OC3 | 0.0875
43 | Cc1cccc(NS(=O)(=O)c2cc(C(=O)N3CCN(C)CC3)ccc2C)c1 | 0.154
44 | COc1ccccc1C(CC(=O)Nc1ccccc1C)c1ccc(OC(C)C)cc1 (stereo not drawn) | 0.159

Row | Compound | z-score
45 | CC(C)CN(C(=O)c1nn(C)c(=O)c2ccccc12)c1nc2ccccc2s1 | 0.13
46 | Cc1ccc(N/C=C/C(=O)C(C)(C)C)c(O)c1 | -0.228
47 | CC(=O)N1CCC(=O)N(C(C)C)c2ccccc21 | 0.519
48 | O=C(CN(c1cccc(C(F)(F)F)c1)S(=O)(=O)c1ccc(Cl)c([N+](=O)[O-])c1)NCc1ccccc1Cl | -0.209
49 | O=C(O)c1ccc(NS(=O)(=O)c2cc(C(=O)O)ccc2Br)cc1 | -0.467
50 | Cc1ccc(-c2cc(C(=O)NCc3cccnc3)no2)cc1 | 0.224
51 | Nc1nnnn1/N=C/c1cccc(OCc2ccccc2Cl)c1 | -0.00468
52 | O=C(O)C1C2C=CC(C2)C1C(=O)NC1CCN(Cc2ccccc2)CC1 (stereo not drawn) | 0.581
53 | COC(=O)CSC1=NS(=O)(=O)c2ccccc21 | -2.06
54 | CCOC(=O)C(C)On1c(-c2cccc(Cl)c2)nc2ccc([N+](=O)[O-])cc21 (stereo not drawn) | 0.66
55 | Cc1cc(NCCN2CCOCC2)n2ncc(-c3ccc(Cl)cc3)c2n1 | -0.0491
56 | O=C(CCC1COc2ccccc2O1)Nc1ncccc1O (stereo not drawn) | -0.575
57 | COc1ccc2cc(C(c3nnnn3C3CCCCC3)N3CCCCCC3)c3nnnn3c2c1 (stereo not drawn) | -0.929
58 | CCNC(=S)N/N=C(\C)c1cc2ccccc2o1 | active: 8.26
59 | Cc1ccc(C)n1-c1ccc(C(=O)NN)cc1 | 2.5
60 | O=C(CN1CCCCCC1)Nc1ccc(Br)cc1 | -0.108
61 | COC(=O)c1ccc(Oc2c(C)oc3cc(OCc4cnn(-c5ccccc5)c4)ccc3c2=O)cc1 | -1.6
62 | N#CCSc1nnc(-c2ccccc2O)n1Cc1ccccc1 | -0.264
63 | NC(=O)COC(=O)c1ccccc1Nc1ccc(SC(F)F)cc1 | -0.248
64 | COc1ccc(-c2cc(-c3nnc(-c4ccncc4)o3)c3ccccc3n2)cc1 | 0.255
65 | COc1cc(NS(=O)(=O)N2CCCC2)cc(OC)c1OC | 0.599
66 | N#CCCN(C(=O)Nc1ccc(Cl)cc1)c1ccccc1 | -0.486

Row | Compound | z-score
67 | CCOc1cc(/C=N/NC(=O)C(=O)NC)cc(Br)c1O | -0.261
68 | COC(=O)CN(c1ccc(C)cc1)S(=O)(=O)c1c(C)[nH]c(=O)[nH]c1=O | -0.359
69 | CCCCCC(=O)N(CN1C(=O)CCC1=O)c1ccccc1 | -0.238
70 | Cc1ccc2[nH]c(-c3ccccc3)c(CN(C)C)c(=O)c2c1 | -0.255
71 | O=C(CCNC(=O)c1ccc(Cl)cc1)Nc1ccc(F)cc1F | -0.198
72 | O=C(Nc1ccccc1Cl)N1CCN(c2ncccn2)CC1 | 0.0134
73 | COc1ccc(S(=O)(=O)Nc2ccc(CC#N)cc2)cc1 | 0.0758
74 | CCn1c(COc2ccc(C)cc2)nnc1SCC(=O)Nc1ccc(S(N)(=O)=O)cc1 | -1.15
75 | CCSc1ccc(NC(=O)c2cccnc2)cc1 | 1.15
76 | O=C(Nc1nc2ccccc2[nH]1)C1CCN(S(=O)(=O)c2cccs2)CC1 | -0.487
77 | COc1ccc(OC)c(NC(=O)Cn2c(CCC(=O)O)ccc2-c2cccs2)c1 | -0.116
78 | Cc1ccc(Sc2c(C)nn(C(=O)c3cccc(S(=O)(=O)N4CCOCC4)c3)c2C)cc1 | 0.262
79 | CCN1CCN(CCNC(=O)CCCCCn2c(=O)[nH]c3cc(C(=O)OC)ccc3c2=O)CC1 | -0.206
80 | O=C(NCCN1CCOCC1)c1cc(-c2ccc(Cl)cc2)on1 | 0.332
81 | CC1CC(C)CN(CCCNC(=O)Cc2c(C(=O)O)[nH]c3ccccc23)C1 (stereo not drawn) | 0.334
82 | CCOc1ccc(C2C(=O)N(C3CCCCC3)CC(=O)N2CC2CCCO2)cc1OC (stereo not drawn) | -0.778
83 | O=C(CCn1cccc1)Nc1ccc(F)cc1 | -0.0216
84 | Cc1cc(Cl)ccc1OC(C)C(=O)NCCCCc1ccccc1 (stereo not drawn) | -0.116
85 | O=C(O)C1CCN(S(=O)(=O)c2ccc(Oc3ccccc3)cc2)CC1 | -0.051
86 | O=C(/C=C/c1ccccc1)NCCOc1ccccc1 | -0.291
87 | CCOc1cc(/C=N/O)cc(Br)c1OC | 0.682
88 | Oc1cccc(-c2nc3c4c(ncn3n2)-c2ccccc2CC42CCCC2)c1 | -0.0248

Row | Compound | z-score
89 | N=c1oc2ccccc2cc1-c1nc2ccccc2c(=O)[nH]1 | 0.218
90 | CCOc1c2ccc(C(=O)NCCc3ccc(C)cc3)cc2nn1CC | -0.287
91 | COc1cccc(CN2CCN(c3cccc(C(F)(F)F)c3)CC2)c1OC | 0.95
92 | CCn1c(/C=C/Nc2ccccc2)[n+](CC)c2cc(Cl)c(Cl)cc21 | -0.581
93 | CC1=NN(c2nc(C)cc(C)n2)C(=O)C1CCC(C)C (stereo not drawn) | 0.328
94 | CCC1CCCCN1C(=O)c1nn2cccnc2c1Cl (stereo not drawn) | 0.18
95 | O=C1CC(N2CCCCC2)C(=O)N1c1ccccc1 (stereo not drawn) | -0.119
96 | O=C(/C=C/c1ccccc1)NCC(=O)N/N=C\c1cccnc1 | 0.429
97 | Cc1cccc(N(CC(=O)Nc2ccccc2F)S(C)(=O)=O)c1 | -0.443
98 | Cc1cccc(/C=N/n2c(-c3ccccn3)n[nH]c2=S)c1 | -0.174
99 | COc1ccc(C(=O)Nc2sc3c(c2C(=O)NCc2ccco2)CCCC3)cc1OC | -1.01
100 | Cc1cccc(NC(=O)c2ccc(S(=O)(=O)C(F)F)cc2)c1C | -0.191
101 | CN(C)c1oc(-c2ccccc2)nc1C#N | -0.0974
102 | Cc1c(C#N)c2ncnc(-c3ccccc3)c2n1-c1ccccc1 | -0.446
103 | Cc1scc(C(=O)N2CCN(S(C)(=O)=O)CC2)c1-c1ccccc1 | 0.0619
104 | O=C(CN(Cc1cccs1)C(=O)CNS(=O)(=O)c1ccccc1)NCc1ccco1 | 0.0572
105 | CCC(C(=O)NC1CCCC1)N(Cc1ccco1)C(=O)Cn1nnc(-c2ccc(C)cc2)n1 (stereo not drawn) | -0.303
106 | C#CCn1c(=NC(=O)c2ccc(Cl)s2)sc2cccc(OC)c21 | -0.074
107 | O=C(Cn1c(=O)[nH]c2ccsc2c1=O)NC1CCCCC1 | -0.236
108 | Cc1cccc(NC(=O)c2ccc(S(=O)(=O)N(C)C)cc2)n1 | -0.221
